Laboratory results reported in PubChem BioAssay (NCI).
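Five compound concentrations were applied to cells in 96-well plates for 48 hours; endpoints were derived by simple linear interpolation of the resulting dose-response curve. GI50 is the concentration that inhibits growth by half. Definition used: TGI = concentration required for complete inhibition of growth.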

These molecules were tested on NCI-H322M lung (assay: DTP human tumour cell line panel, 48 h).

| SMILES | GI50 [µM] | TGI [µM] |
| --- | --- | --- |
| COc1cccc2nc(Nc3cccc(NC(=O)c4ccc(CN5CCN(C)CC5)c(C(F)(F)F)c4)c3)ccc12 | 2.3 | 6.32 |
| CC1(C)CC[C@]2(C(=O)N3CCOCC3)CC[C@]3(C)C(=CC[C@@H]4[C@@]5(C)CC[C@H](NCO)C(C)(C)[C@@H]5CC[C@]43C)[C@H]2C1 | 4.03 | 8.42 |
| COc1cc2c3c(n(CCCn4ccnc4)c(=O)c2cc1OC)-c1nc2c(cc1C3=O)OCO2 | > 35 | > 100 |
| COc1ccc(CCC2c3c(cc4c(c3OC)OCO4)CCN2C)cc1 (stereo not drawn) | 6.85 | 70.5 |
